In the RNAGym collection of RNA variant scans (doi:10.1073/pnas.2313332121):
This sample is rich in variants without activity.

B1: TPR 5TU (parent)
chain: GGAUCUUCUCGAUCUAACAAAAAAGACAAAUCUGCCACAAAGCUUGAGAGCAUCUUCGGAUGCAGAGGCGGCAGCCUUCGGUGGCGCGAUAGCGCCAACGUUCUCAACUAUGACACGCAAAACGCGUGCUCCGUUGAAUGGAGUUUAUCAUG

Variants of: B1
Test: polymerase ribozyme fitness, log enrichment relative to wild type (log ratio); higher = more active; in vitro selection for triplet polymerase activity
How it was run: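 Streptavidin-bead capture of gel-excised extended constructs, followed by RT-PCR, closed a single triplicate in vitro selection round. That round began by annealing PCR-built, transcribed mutant libraries of each subunit of a heterodimeric triplet polymerase ribozyme with a biotinylated primer, the partner subunit and triplets, then incubating them frozen at −7 °C. After Illumina sequencing of inputs and outputs, genotypes needed ≥10 input reads and ≥1 read per output. Fitness is the base-2 logarithm of genotype enrichment over wild-type enrichment, using inverse-variance-weighted replicate averages.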

Polymerase ribozyme fitness (log ratio), ≤ -4.2:
A21U A28C G58A C87G C103A A119C
A21U A29C C35A A40C G67C A142U
A21U A29U A39U U146A
A21U A30C G84C C108A G140U
A21U A30G A41U C43U U44G C75G C87A A138G A150G
A21U A49C C87A A137G
A21U A49G C69A G80C G83A U146A
A21U A52C C54U C93U A107G U148C
A21U A52C G71U G94A C105A
A21U A52G C72A G83U
A21U A60C C76U C85U U102G C118U U139G
A21U A91C C116G C129G
A21U A97U C103A A113U U134C
A21U C27A G68A C69U C85A A147G
A21U C32A C35G G50U C96A C116U C118U A142G
A21U C32U U77C G141C
A21U C35G C63A G84U C116A A122G G143C U146A
A21U C35G G62U G84U C95G A106G U139G
A21U C43A U44G C95A A113C
A21U C43U G48C A52C C96U U135A G141U
A21U C43U U55A G58A U111A A122C
A21U C54U C72G A91G G94A G128U G152A
A21U C57A U82C G100U C103G C118G
A21U C75G G88C U135C G140U
A21U C79U G84A C93A C105U
A21U C85U G94A A121C A138U
A21U C85U G94C C96A C105G
A21U C99A A106C C116U U135C
A21U G46A G84C C132U
A21U G50C C87G U101G C116G A138U
A21U G58C G81A C85A G92A A106U
A21U G59C A98U G100A G136A
A21U G83U G92U C116A C129G
A21U G88U C105U
A21U U31G A52G C85U U127G G128U U130A U148A
A21U U33A C76A U77G C103A A107G G141C
A21U U44A G71U A120U G141U U151G
A21U U53A G65A U77A G88U G92C
A21U U56A G88A C99G G128C
A22C A23U A73G U90A C99U
A22C A23U U109C
A22C A24C
A22C A24C G42C A52U U53A A121C
A22C A24G A28C A49U C85G
A22C A24U U33G C85G C105G C108A U144C
A22C A26C A30G G88U
A22C A28C C35U G94C U135C
A22C A28U G42C G74U C96A C129A A137C G141A
A22C A28U G46A G81C C95U C131U A137G
A22C A28U U55A C99U U151C
A22C A29U U56G A66U U77C C114A U134C
A22C A30G G50C A64C C85U C118G G140C U144C
A22C A37C G42C C79U C87G G117U A150C
A22C A40G C57A C76U C99U C105U C131A G133C
A22C A60U U61G G74C C85G U127C A150C
A22C A97U A138C
A22C C32U C51A C75A
A22C C51G U53G C103G
A22C C54U U56A A66U C85A G152C
A22C C57A G62U C93U A97U A98G
A22C C69U C87A U90A G117U
A22C C79G A110C
A22C G25C A30U C96G A137G A147U
A22C G25U A40C C75G C79G
A22C G34U C85G C99U A106G G128C U130C A138C
A22C G42A C54A C85U
A22C G50A C87A C105G
A22C G50C C54A G62A G100A C105G A119C G140U
A22C G58C G83A C118U G126C G140A G141A
A22C U31C A47G C103A A110G C118G
A22C U33A A60U C149G
A22C U33G G67A C95G C129G
A22C U33G U146A
A22C U44A U61A C96G G141C
A22C U44G A52G U55A C96U
A22C U45A G50C G86A G100A C118U
A22C U61A A91G U148C
A22G A28U A91C G141A
A22G A30G C75U G80U C93A C103G
A22G A41C U56A A66U A115G
A22G A47C C85A A106G A137C U146G
A22G A47U C54U C93G U130A A147C
A22G A52U A66U
A22G C27G C43A C76G
A22G C35A C43U G59U G83C U109G U135C
A22G C43G C54A C87A C108A
A22G C43U U44C C54A A73U C87U A147C A150G
A22G C54U A91U G152A
A22G C69A G86A C87A C103U A106U G128A U130G C131A A138U
A22G C76U C85A C87U G128C G140U
A22G G25U A47C A52U U55G C75U U77C C95U C125U U144G
A22G G34C G80C U82A C118U A147U
A22G G50U U56G U78G A106U C108U
A22G G58C G68C A91C U102G A137C
A22G G80A G88U
A22G G81C G88A A91G C103A A110G C125G
A22G G83C U111G A120U
A22G G86U C87G U111C A113U A119U A122U G136A
A22G U45A U55A U56G A107U C125A U148G
A22G U78A A137U
A22U A23U G25A C38A G86A
A22U A24C G42A A49C C76A G83U
A22U A26G C57A A66G G84A C103U
A22U A28U A30U A47C C57U A150G
A22U A30U A39U C54A C93U A97U
A22U A30U A39U G59C G83A
A22U A37G A47C U55C G58U C69U C76G G86U A91G G100U
A22U A39U A40U C51U C87U A122U
A22U A39U G42C C76U U78A C85G C116A G117U
A22U A40C G58U C96G G133U
A22U A40U G70U C93U G100U
A22U A49C C87G A137U
A22U A49G G92A
A22U A52G A73C C79G U82A G84C C96G A107C
A22U A52G C85A C93U G128C U145A
A22U A66C G84A C116G C149U
A22U C27U C36U U55G C57U G74A C95G G100A G140A
A22U C32A C57A G58C C93U G133C U151G
A22U C35U G92C A107U A115G
A22U C36G G65C A66C C79G G133A
A22U C43A G59U G70A C93A
A22U C43U G50C G80A A110G U144C U148G
A22U C43U G59U G68A
A22U C69G G94A C103G U104G U139A
A22U C72A G88U A110C U145A
A22U G34C C35U U55G G58C A73G G126A G141C A150U
A22U G42U G59C G92A A106U G136A U151G
A22U G46C C69A A89U U139C U148C
A22U G50C C54G C75U U102G A107U C116G
A22U G50U G81C A91U C116U
A22U G50U G86U A115C U151C G152C
A22U G58C C105U A107C
A22U G59A G74C G83U G84A
A22U G62A U82G C93G C108A G126C
A22U U31A C57A A60G C103G U111G A122U U151A
A22U U33G G34U G81C A120G U134C
A22U U44C C75U C85G A97C
A22U U45G G48U C85U A142U
A22U U56A G67A C96U A150U
A22U U61G A64C G84C U145G
A23C A28U A30G G58A C85A U144A
A23C A40G C54G C95G C123G G143A
A23C A41G U55A G59C C85A A97U G140A
A23C A47G C69U
A23C A52G G71U C85U A106C
A23C A64C A73U G124U
A23C A66G G67A U135G U139C A142C
A23C A73C C96U G141U
A23C C43U U61A G88C
A23C C54A U55A A91G A106G
A23C C57U C95G G126U G141C
A23C C63G C103G A119U
A23C C63U G74A C85U G100C A107U U148G
A23C C79G C85U G94C C95U U104A U130G U145C
A23C C85U A98C C123A
A23C C87G U145A
A23C G25U G50A U55G G124U
A23C G46C G84A
A23C G50U C87G U104G A110C G141U
A23C G80C G84A C93A U144A
A23C G84U C93G A98U A122G U144G
A23C U33G G67C G112C U144C
A23C U55A C69U G136A
A23C U78A A91U A138C
A23C U78A C85A U151A G152U
A23C U148C
A23G A26C U45G A91U U144C A147C
